Measured values taken from publication PMC4336329 (PLoS ONE, 2015).
About 2,200 (0.71%) of roughly 310,000 compounds showed an effect of 50% or more. Effects have a minus sign here. This is one part of the list.

molecular target: human ether-à-go-go-related gene (hERG) potassium channel (human, UniProt Q12809); assay: primary screen, population patch clamp on CHO cells stably expressing hERG
Sequence (Q12809 whole entry, looked up): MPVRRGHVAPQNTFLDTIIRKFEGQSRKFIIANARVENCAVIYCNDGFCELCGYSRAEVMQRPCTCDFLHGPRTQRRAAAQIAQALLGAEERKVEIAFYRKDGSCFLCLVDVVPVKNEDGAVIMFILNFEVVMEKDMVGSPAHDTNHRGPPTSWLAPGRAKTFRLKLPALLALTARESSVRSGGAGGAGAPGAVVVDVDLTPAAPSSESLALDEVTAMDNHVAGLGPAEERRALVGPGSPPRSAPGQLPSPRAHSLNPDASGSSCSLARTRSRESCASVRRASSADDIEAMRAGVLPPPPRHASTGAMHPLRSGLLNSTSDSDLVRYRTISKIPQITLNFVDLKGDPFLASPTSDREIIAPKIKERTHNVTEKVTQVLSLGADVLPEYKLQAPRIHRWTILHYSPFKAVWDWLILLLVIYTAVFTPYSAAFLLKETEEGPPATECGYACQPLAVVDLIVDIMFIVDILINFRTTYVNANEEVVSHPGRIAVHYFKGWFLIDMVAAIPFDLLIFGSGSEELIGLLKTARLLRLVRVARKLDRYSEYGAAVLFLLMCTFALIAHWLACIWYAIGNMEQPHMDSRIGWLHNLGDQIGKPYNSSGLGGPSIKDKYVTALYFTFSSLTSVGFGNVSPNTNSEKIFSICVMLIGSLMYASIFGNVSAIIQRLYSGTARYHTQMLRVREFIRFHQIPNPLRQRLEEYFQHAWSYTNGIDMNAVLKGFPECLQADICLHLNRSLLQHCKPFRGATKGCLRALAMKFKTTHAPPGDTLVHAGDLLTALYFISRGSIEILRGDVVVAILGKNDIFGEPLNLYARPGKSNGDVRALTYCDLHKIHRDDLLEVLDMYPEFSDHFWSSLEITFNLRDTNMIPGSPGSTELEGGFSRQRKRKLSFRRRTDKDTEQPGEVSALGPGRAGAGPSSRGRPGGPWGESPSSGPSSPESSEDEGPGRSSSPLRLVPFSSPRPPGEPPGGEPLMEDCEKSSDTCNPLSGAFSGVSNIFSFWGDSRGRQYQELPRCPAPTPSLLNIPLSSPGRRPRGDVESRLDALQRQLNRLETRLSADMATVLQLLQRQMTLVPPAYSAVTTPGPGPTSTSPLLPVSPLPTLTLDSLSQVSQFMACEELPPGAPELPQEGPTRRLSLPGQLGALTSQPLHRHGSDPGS

Point of comparison: CC(C)Cc1nc2oc3c(=O)[nH]cnc3c2c2c1CCCC2, “hERG current change (%, negative = inhibition) at 1uM” value 2.36%. Against it:
- C=CCN1C(=O)CN=C1Nc1cc(C)ccc1C.Cl — higher, 7.51%
- O=C(NCc1ccccc1)C(c1ccccc1)N(Cc1ccc2c(c1)OCO2)C(=O)Cc1cccs1 (stereo not drawn) — higher, 13.9%
- Cc1cc(C)n2nc(SCC(N)=O)nc2n1 — higher, 13.1%
- CNC(=O)[C@@]1(Cc2ccccc2)C=C[C@@H](C)N1C(=O)OC — higher, 11.7%
- COc1ccc(CN2C(=O)c3ccc(C(=O)O)cc3C2=O)cc1 — higher, 12.3%
- CN1CCN(C(=O)CCN2C(=O)/C(=C/c3cccc(Br)c3)SC2=S)CC1 — higher, 16.7%
- Cc1cc[n+](CC(=O)Nc2cccc(C)c2)cc1.[Cl-] — higher, 12.1%
- CCOc1ccc(CCNC(=O)c2ccc(N3CCCC3=O)cc2)cc1OCC — higher, 13.2%
- CCOC(=O)c1cccc(NC(=O)c2ccc(N(C)C)cc2)c1 — higher, 2.71%
- CCCCC1C2=C(CC(C)(C)CC2=O)OC2=C1C(=O)CC(C)(C)C2 — higher, 7.94%
- COc1ccc(N2CCN(C(=O)c3ccc(Oc4ccc(C(F)(F)F)cn4)cc3)CC2)cc1 — lower, -7.25%
- CCCCCCC(=O)N(O)C1CC(=O)N(c2ccc(Br)cc2)C1=O (stereo not drawn) — higher, 14%
- O=C(NNC(=O)c1c(O)c2ccccc2[nH]c1=O)c1ccccc1Br — higher, 7.81%
- O=C(Nc1ccc(C(=O)O)cc1)/C(=C\C=C\c1ccccc1)NC(=O)c1ccccc1Br — lower, -2.17%
- COCCCN(C(=O)CSCc1c(C)noc1C)c1c(N)n(Cc2ccccc2)c(=O)[nH]c1=O — higher, 15.6%
- Cc1ccc(OCC(O)CNCc2ccc(F)cc2)cc1 (stereo not drawn) — lower, -14.2%
- COc1ccc(Cl)cc1NC(=O)c1cccnc1 — higher, 9.45%
- O=C(Nc1ccc2c(c1)OCO2)c1ccc(Br)c(S(=O)(=O)N2CCCC2)c1 — higher, 17.7%
- COc1ccc(CN(C)Cc2ccccc2)c(OC)c1OC — higher, 6.54%
- Cn1c(=O)cc(SCC(=O)N2CCN(c3ccccn3)CC2)c2ccccc21 — higher, 5.44%
- CC(=O)N1CCN(C(=O)c2cc(-c3cccc4ccccc34)nc3ccccc23)CC1 — lower, -2.95%
- COc1ccc(OC)c(NC(=O)C2CC(/C=C/c3ccccc3)=NO2)c1 (stereo not drawn) — higher, 13.5%
- Cn1c(=O)c2c(nc(CN3CCN(C(=O)c4ccco4)CC3)n2Cc2cccc(Cl)c2)n(C)c1=O — lower, -18.5%
- Cc1cc(NC(=O)CCNS(=O)(=O)c2ccc3[nH]c(=O)oc3c2)ccc1Br — higher, 13%
- O=C(CNS(=O)(=O)c1ccccc1)N/N=C\c1ccc(Cl)cc1 — higher, 7.62%
- CCNC(=S)N/N=C/c1ccc(-c2ccccc2)o1 — higher, 8.02%
- Cc1ccccc1C(=O)NNC(=S)NC(=O)c1cccs1 — higher, 23.1%
- O=C1CCCN1CC(CN1CCOCC1)Sc1nnnn1-c1ccccc1 (stereo not drawn) — higher, 8.06%
- CCOC(=O)c1c(C)[nH]c(C)c1C(=O)COC(=O)c1cc2ccccc2cc1OC — higher, 10.8%
- COCCN1Cc2cc3cc(C)ccc3nc2SC1=Nc1ccc(OC)cc1 — higher, 9.8%
- CO.COc1ccc(Nc2nc(Nc3ccc(OC)cc3)nc(SC3=NCCS3)n2)cc1 — higher, 16.7%
- Cc1ccc(/C=C2\SC(=S)N(CC3CCCO3)C2=O)o1 (stereo not drawn) — lower, -2.26%
- Cc1nc(-c2ccc(NC(=O)c3ccc(Br)o3)cc2)cs1 — higher, 9.7%
- COc1cccc(CNC(=O)c2cc(C)nc3ccccc23)c1 — higher, 11%
- CCCCCCc1cc2cc(S(=O)(=O)c3ccc(Cl)cc3)c(=O)oc2cc1O — higher, 9.31%
- CCC1CCCCN1C/C=C/c1ccccc1[N+](=O)[O-] (stereo not drawn) — lower, -35%
- Nc1ccccc1C(=O)NCc1ccc(Cl)cc1 — higher, 2.77%
- O=C(Nc1cc(S(=O)(=O)N2CCOCC2)ccc1N1CCOCC1)c1cc(=O)[nH]c2ccccc12 — lower, 1.79%
- Cc1c(Cc2ccccc2)c(=O)oc2cc(OCC(=O)N3CCC(C(=O)O)CC3)ccc12 — higher, 6.71%
- COc1ccccc1N1CCN(C(=O)Nc2ccc([N+](=O)[O-])cc2)CC1 — lower, -10.6%
- COc1ccccc1NC(=O)CNC(c1ccccc1)c1ccccc1 — higher, 9.55%
- COC(=O)C(O)(c1c(C)[nH]n(-c2ccccc2)c1=O)C(F)(F)F (stereo not drawn) — higher, 14.2%
- CC1(c2nnc(-c3ccc(Cl)cc3)o2)CC(c2ccc([N+](=O)[O-])cc2)=NO1 (stereo not drawn) — lower, 1.73%
- NC(=S)N/N=C/c1ccc2ccccc2c1 — lower, 2.29%
- CCOCCOC(=O)c1[nH]c2c(c1C)C(=O)CC(c1ccccc1)C2 (stereo not drawn) — higher, 4.31%
- CC(=O)OCC1=C(C(=O)O)N2C(=O)C(NC(=O)c3ccc(COc4ccc(Cl)cc4)o3)C2SC1 (stereo not drawn) — higher, 3.91%
- NC(N)=NS(=O)(=O)c1ccc(NC(=S)NC(=O)Cc2ccc(Cl)cc2)cc1 — higher, 14.1%
- CCOC(=O)CC1=C(C(=O)OCC)C2(C(=O)N1)C(C(=O)OC)=C(N)Oc1ccccc12 (stereo not drawn) — lower, -4.49%
- O=C(OCC(=O)N1CCCC1)c1ccc(S(=O)(=O)N2CCOCC2)cc1 — higher, 12.6%
- Nc1ncnc(Nc2cccc(C(F)(F)F)c2)n1 — higher, 3.31%
- Cc1cc(C(F)(F)F)nc(-n2cc(-c3cccc(N)c3)nn2)n1 — higher, 4.58%
- CCCC(=O)Nc1nn(CC)c2nc3ccc(C)cc3cc12 — higher, 11.2%
- O=C(CSc1nc2ccccc2o1)NCC1CCCO1 (stereo not drawn) — lower, -1.64%
- O=C(COc1ccccc1[N+](=O)[O-])N(Cc1cccc(Br)c1)C1CCS(=O)(=O)C1 (stereo not drawn) — lower, -9.07%
- Cn1c(=O)oc2cc(S(=O)(=O)N3CCN(Cc4ccc5c(c4)OCO5)CC3)ccc21 — lower, -17.1%
- COc1cccc(-c2cc(C(=O)N3CCc4ccccc4C3)[nH]n2)c1 — higher, 17.1%
- COc1ccc(S(=O)(=O)N(C)CC(=O)N2CCCC2)cc1OC — higher, 17.6%
- COC(=O)C1=C(N)Oc2cc(C)[nH]c(=O)c2C1c1ccncc1 (stereo not drawn) — higher, 12.7%
- COc1cc(C(=O)Nc2c(C(=O)N3CCOCC3)oc3ccccc23)cc(OC)c1OC — lower, -0.979%
- CC(C)OC(=O)CN1C(=O)S/C(=C/c2ccc(N3CCCCC3)o2)C1=O — lower, 0.015%
- COc1cc2ccccc2cc1C(=O)Nc1nccs1 — higher, 11.8%
- CCOC(=O)C1=C(c2ccccc2)N=C2SCC(=O)N2C1c1ccc(OC)c(OC)c1 (stereo not drawn) — higher, 6.2%
- CCN(c1ccccc1)S(=O)(=O)c1nnc(NC(=O)C(C)(C)C)s1 — higher, 14.3%
- O=C(CCCN1C(=O)/C(=C\c2cccs2)SC1=S)Nc1cc([N+](=O)[O-])ccc1O — higher, 15.1%
- Cc1ccc2nc(SCC(=O)NCc3ccco3)[nH]c2c1 — lower, -4.79%
- O=C(CN1C(=O)c2cccnc2Oc2ccc(Cl)cc21)N1CCOCC1 — higher, 10.6%
- O=c1cc(N2CCOCC2)[nH]c(=O)n1-c1ccc(Br)cc1 — higher, 17.2%
- Cc1cccc(N2CCN(C(=O)c3ccc4c(c3)NC(=O)C(CSCc3cccc(F)c3)N4)CC2)c1C (stereo not drawn) — higher, 12.8%
- NS(=O)(=O)c1ccc(-n2cccc2C=O)cc1 — higher, 2.72%
- Brc1ccc2[nH]cc(/C=N/N3CCCCC3)c2c1 — lower, -2.56%
- CCOC(=O)N1CCN(c2ncnc3c2[nH]c2ccc(OC)cc23)CC1 — lower, -8.87%
- C/C(=N\OCc1ccc(C#N)cc1)c1ccc(S(=O)(=O)N(C)C)cc1 — lower, -5.37%
- Cc1c([N+](=O)[O-])c([N+](=O)[O-])nn1CC(=O)NCc1cccnc1 — higher, 8.28%
- COc1cc(C(=O)NCCOc2ccccc2)cc(OC)c1OC — higher, 16.3%
- O=C(O)c1cc2ccccc2c(=O)s1 — higher, 14%
- CN1CCN(C(=O)c2ccc(C(F)(F)F)cc2)CC1.Cl — higher, 16.8%
- COc1ccc(Cl)c(Cn2c(NCCCN(C)C)nc3c2c(=O)n(C)c(=O)n3C)c1 — lower, 0.065%
- c1ccc(CN2CCC3(CC2)Nc2ccccc2CO3)cc1 — lower, -4.96%
- O=C(c1ccccc1F)N1CCN(c2ccc([N+](=O)[O-])c(N3CCOCC3)c2)CC1 — higher, 25.4%
- CC(C)OC(=O)/C(C#N)=C/c1cn(Cc2ccccc2)c2ccccc12 — higher, 4.54%
- COc1cc(CC2C(=O)N(C)C(=O)N(C)C2=O)ccc1OCc1ccccc1 — higher, 10.2%
- c1ccc2c(c1)Nc1ccccc1S2 — higher, 14.1%
- CC1CCN(S(=O)(=O)c2ccc(NC(=O)Cn3nnc(-c4ccccc4F)n3)cc2)CC1 — lower, 2.24%
- CN(C)S(=O)(=O)c1cccc(N=C2SCCN2Cc2ccccc2)c1 — lower, 0.812%
- Cn1nc(-c2ccc(Cl)cc2)c2cc(C(=O)N3CCN(c4ccccc4)CC3)sc21 — higher, 4.85%
- COc1ccccc1OCc1ccc(C(=O)N2CCN(C(=O)c3ccco3)CC2)cc1 — lower, 0.783%
